T1: Human ALPP (leucine zipper) (human)
T1 construct: Whole entry: ALPP fused with a cysteine stabilised leucine zipper and His tag; also called hALPP
T1 chain: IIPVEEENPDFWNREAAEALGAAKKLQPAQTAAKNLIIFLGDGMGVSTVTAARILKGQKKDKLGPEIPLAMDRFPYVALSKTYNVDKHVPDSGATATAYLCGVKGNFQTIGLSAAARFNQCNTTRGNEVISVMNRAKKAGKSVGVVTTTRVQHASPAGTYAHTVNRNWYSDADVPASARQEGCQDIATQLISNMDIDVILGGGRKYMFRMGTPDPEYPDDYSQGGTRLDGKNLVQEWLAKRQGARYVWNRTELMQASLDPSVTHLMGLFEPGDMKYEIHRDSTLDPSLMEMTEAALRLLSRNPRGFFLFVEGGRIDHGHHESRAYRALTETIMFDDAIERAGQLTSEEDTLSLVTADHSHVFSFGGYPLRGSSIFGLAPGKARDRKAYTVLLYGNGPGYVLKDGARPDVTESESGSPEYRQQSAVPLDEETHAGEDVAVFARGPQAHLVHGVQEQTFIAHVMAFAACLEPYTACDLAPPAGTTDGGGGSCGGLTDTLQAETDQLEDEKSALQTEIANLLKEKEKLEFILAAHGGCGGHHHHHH

T2: Human ALPPL2 (leucine zipper) (human)
T2 construct: Whole entry: fused with a cysteine stabilised leucine zipper and His tag; also called hALPPL2
T2 chain: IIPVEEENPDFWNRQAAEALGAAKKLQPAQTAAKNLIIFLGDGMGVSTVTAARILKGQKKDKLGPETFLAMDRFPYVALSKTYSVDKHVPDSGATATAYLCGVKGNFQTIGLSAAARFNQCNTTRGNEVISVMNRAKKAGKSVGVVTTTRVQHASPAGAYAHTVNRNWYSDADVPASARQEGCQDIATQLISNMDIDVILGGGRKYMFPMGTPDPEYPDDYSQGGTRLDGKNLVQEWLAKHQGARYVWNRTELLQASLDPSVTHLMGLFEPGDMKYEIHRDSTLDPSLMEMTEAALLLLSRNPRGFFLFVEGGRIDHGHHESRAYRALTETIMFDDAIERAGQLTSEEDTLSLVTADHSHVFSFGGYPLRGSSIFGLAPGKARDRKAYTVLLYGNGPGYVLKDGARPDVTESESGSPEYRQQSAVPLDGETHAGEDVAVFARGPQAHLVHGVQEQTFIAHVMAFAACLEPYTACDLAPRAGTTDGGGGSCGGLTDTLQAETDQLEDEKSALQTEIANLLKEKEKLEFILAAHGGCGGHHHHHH

B1: E06-hFc (S239C) (Fc fusion)
chain: QVHLVESGGGLVQAGGSLRLSCAASRRSFSEYAMGWFRQAPGKEREFVAAIGWSGVIEYADSVKGRFTISRDNAKDTVYLQMNSLKPEDTAVYYCAAGLGIRVVSQTPAYWGQGTQVTVSSGGGGSGGGGSGGGGS[human IgG1 Fc with changes not spelt out]
notes: [G4S]3 linker
B2: E10-hFc (S239C) (Fc fusion)
chain: QVQLVESGGGLVQAGGSLRLSCAVSGRALSDYNIGWFRQAPGKEREFVARKTWDGSSTRYDDSVKGRFTVSIEDAKNTAYLQMSSLKTEDTAVYYCAAGRYSRARGWEYDYWGQGTQVTVSSGGGGSGGGGSGGGGS[human IgG1 Fc with changes not spelt out]
notes: [G4S]3 linker; also called #435
B3: F05-hFc (S239C) (Fc fusion)
chain: QVQLVESGGGLVQAGGSLRLSCAASGRAFGDYNIGWFRQAPGKEREFVARRTWDGSSTRYDDSVKGRFTVSIDNAKNTAYLQMNSLKTEDTAVYYCAAGRYSRVRGWEYDYWGQGTQVTVSSGGGGSGGGGSGGGGS[human IgG1 Fc with changes not spelt out]
notes: [G4S]3 linker; also called #436
B4: A06-hFc (S239C) (Fc fusion)
chain: QVHLVESGGGLVQAGGSLRLSCAASGRTFLSMGWFRQAPGKEREFVAAISWTGGSTGYADSVKGRFTISRESDKETMYLQMNSLKPEDTAVYYCAARGDVYYGGDDATRYKYWGQGTQVTVSSGGGGSGGGGSGGGGS[human IgG1 Fc with changes not spelt out]
notes: [G4S]3 linker; also called #340
B5: B01-hFc (S239C) (Fc fusion)
chain: QVQLVESGGGLVQAGGSLRLSCEVTRSPMPIDTMAWYRQAPGRQRELVAIISRSGSTNYADSVKGRFTISRNDTKSTMYKSTMYLKMNTLELEDTGVYYCNAVGLWNGAEYWGQGTQVTVSSGGGGSGGGGSGGGGS[human IgG1 Fc with changes not spelt out]
notes: Built from parts; also called #341
B6: D10-hFc (S239C) (Fc fusion)
chain: QVQLVESGGGLVQPGGSLRLSCAASGSIFSVNTMGWYRQAPGKQRDLVAVATSGGTIHYADSVKGRFTISRDNAKNTVYLQMNSLKPEDTAVYYCNLVVPYGMIAGDHDYWGQGTKVTVSSGGGGSGGGGSGGGGS[human IgG1 Fc with changes not spelt out]
notes: [G4S]3 linker
B7: C07-hFc (S239C) (Fc fusion)
chain: QVQLVESGGGLVQAGESLRLACAASGTIFSGNAVGWYRQAPEKQREWVSSITDYGDTDYAEAVKGRFTISRDNAKNTVYLQMNSLKPEDTAVYYCYVYQRGESEEYWGQGTQVTVSSGGGGSGGGGSGGGGS[human IgG1 Fc with changes not spelt out]
notes: Built from parts
B8: D04-hFc (S239C) (Fc fusion)
chain: QVQLVESGGGLVQPGGSLRLSCAASESTFSINVMGWYRQAPGKQRELVATITSGDITNYADSVKGRFTISRDNAENTVYLRTNSLKPEDTAVYYCNARGEYHSGNEYDYWGQGTQVTVSSGGGGSGGGGSGGGGS[human IgG1 Fc with changes not spelt out]
notes: Built from parts; also called #371

Target: T1, Human ALPP (leucine zipper)
Experiment: BLI, antigen immobilised, KD apparent
Protocol: (§1) Binding kinetics were determined using the Biolayer Interferometry (BLI) Octet K2 or R4 system (Sartorius). […] For KD apparent measurements, the ALPP proteins were immobilised in sodium acetate pH5 buffer to AR2G sensors using amine coupling. To measure 1:1 interactions, AHC biosensors were used to immobilise Fc-fused proteins. All assays were conducted in HBS-EP with a plate temperature of 25° C. Ka (M⁻¹s⁻¹), Kd (s⁻¹) and KD (nM) values were determined using Octet Data Analysis High Throughput software (Sartorius) for Biolayer Interferometry.

**Q.** B1 was tested. Which Kd did it give?
**A.** 0.038 nM

**Q.** And the koff?
**A.** 1.22e-05 s⁻¹

**Q.** What about the kon of the same binder?
**A.** 321000 M⁻¹ s⁻¹

**Q.** Which results are given for B2?
**A.** Kd: 0.012 nM; koff: 4.69e-06 s⁻¹; kon: 382000 M⁻¹ s⁻¹

**Q.** What does the source list for B3?
**A.** Kd: 0.063 nM; koff: 2.06e-05 s⁻¹; kon: 330000 M⁻¹ s⁻¹

**Q.** How did the Kd turn out when B4 was run?
**A.** < 0.01 nM

**Q.** And the koff?
**A.** 1.8e-07 s⁻¹

**Q.** What about the kon of the same binder?
**A.** 203000 M⁻¹ s⁻¹

**Q.** With B5 as the binder, how does the Kd read?
**A.** < 0.01 nM

**Q.** What about the koff of the same binder?
**A.** < 1e-07 s⁻¹

**Q.** And the kon?
**A.** 140000 M⁻¹ s⁻¹

**Q.** How did the Kd turn out when B6 was run?
**A.** 0.0677 nM

**Q.** And the koff?
**A.** 1.08e-05 s⁻¹

**Q.** And the kon?
**A.** 160000 M⁻¹ s⁻¹

**Q.** Which results are given for B7?
**A.** Kd: < 0.01 nM; koff: < 1e-07 s⁻¹; kon: 151000 M⁻¹ s⁻¹

**Q.** For B8, which Kd is on record?
**A.** 0.0214 nM

**Q.** What about the koff of the same binder?
**A.** 6.65e-06 s⁻¹

**Q.** And the kon?
**A.** 311000 M⁻¹ s⁻¹

Target: T2, Human ALPPL2 (leucine zipper)
Experiment: BLI, antigen immobilised, KD apparent
Protocol: as §1

**Q.** B1 was tested. Which Kd did it give?
**A.** < 0.01 nM

**Q.** What about the koff of the same binder?
**A.** < 1e-07 s⁻¹

**Q.** And the kon?
**A.** 688000 M⁻¹ s⁻¹

**Q.** For B2, which Kd is on record?
**A.** < 0.01 nM

**Q.** What about the koff of the same binder?
**A.** < 1e-07 s⁻¹

**Q.** And the kon?
**A.** 288000 M⁻¹ s⁻¹

**Q.** With B3 as the binder, how does the Kd read?
**A.** 0.03 nM

**Q.** And the koff?
**A.** 1.06e-05 s⁻¹

**Q.** What about the kon of the same binder?
**A.** 350000 M⁻¹ s⁻¹

**Q.** For B4, which Kd is on record?
**A.** 0.584 nM

**Q.** And the koff?
**A.** 0.000215 s⁻¹

**Q.** And the kon?
**A.** 368000 M⁻¹ s⁻¹

**Q.** What does the source list for B5?
**A.** Kd: 0.201 nM; koff: 6.18e-05 s⁻¹; kon: 308000 M⁻¹ s⁻¹

**Q.** Which results are given for B6?
**A.** Kd: 9.94 nM; koff: 0.00186 s⁻¹; kon: 187000 M⁻¹ s⁻¹

**Q.** With B7 as the binder, how does the Kd read?
**A.** 0.449 nM

**Q.** What about the koff of the same binder?
**A.** 0.000114 s⁻¹

**Q.** What about the kon of the same binder?
**A.** 253000 M⁻¹ s⁻¹

**Q.** For B8, which Kd is on record?
**A.** 2.3 nM

**Q.** And the koff?
**A.** 0.000239 s⁻¹

**Q.** What about the kon of the same binder?
**A.** 104000 M⁻¹ s⁻¹

Each binder was assayed against T3, human ALPPL2 on CHO cells (human, UniProt P10696 20-503) (assay: flow cytometry, CHO cells, KDapp).
T3 construct: whole, on cells; also called CHO-ALPPL2
Protocol: (§2) Cell surface binding of test agents to hALPP isoforms was characterized in four CHO-ALPP isoform transfectant cell lines (CHO-ALPP, CHO-ALPPL2, CHO-ALPI and CHO-ALPL) and the resulting KDapp values determined. Adherent cells were detached from tissue culture flasks by incubating with 0.1% EDTA/PBS solution at 37° C. for ~10 minutes or until cells detached easily. Cells were re-suspended in ice-cold PBS/2% FCS in 15 ml tubes and centrifuged at 1700 rpm for 5 mins at 4° C. Supernatant was removed and the cell pellet re-suspended in PBS/2% FCS. […] Cells were incubated with 100 μl of test agents at a range of concentrations, plus controls for 1 hr on ice. The sample plate was centrifuged at 1700 rpm for 5 mins at 4° C. The supernatant was removed, and a wash performed by re-suspending the cell pellets in 0.25 mL of ice-cold PBS/2% FCS using a multichannel pipette. Samples were again centrifuged at 1700 rpm for 5 min at 4° C. Supernatant was removed and two further washes performed as described. After the final wash and centrifugation step, excess liquid was removed by blotting the plate on tissue paper. Binding of VHH-hFc agents was determined by adding 100 μl of Fitc-anti-human Ab (ThermoFisher) and incubating for 30 mins on ice in the dark. Wash steps were performed as described previously. All cell pellets were finally re-suspended in 0.28 ml of ice-cold PBS/2% FCS and left on ice in the dark prior to analysis on a Merck-Millipore Guava EasyCyte HT or Thermo Fisher Attune N×T flow cytometer.

**Q.** Which Kd does the source give for B1 here?
**A.** 3.7 nM

**Q.** For B2, which Kd is on record?
**A.** 3 nM

**Q.** Which Kd does the source give for B3 here?
**A.** 2.9 nM

**Q.** With B4 as the binder, how does the Kd read?
**A.** 3.9 nM

**Q.** B5 was tested. Which Kd did it give?
**A.** 9.3 nM

**Q.** B6 was tested. Which Kd did it give?
**A.** 8 nM

**Q.** With B7 as the binder, how does the Kd read?
**A.** 1.8 nM

The binders below were run against T4, human ALPP on CHO cells (human, UniProt P05187 23-506) (assay: flow cytometry, CHO cells, KDapp).
T4 construct: whole, on cells; also called CHO-ALPP
Protocol: as §2

**Q.** B1 was tested. Which Kd did it give?
**A.** 6 nM

**Q.** With B2 as the binder, how does the Kd read?
**A.** 3.7 nM

**Q.** With B3 as the binder, how does the Kd read?
**A.** 3.3 nM

**Q.** Which Kd does the source give for B4 here?
**A.** 5.4 nM

**Q.** B5 was tested. Which Kd did it give?
**A.** 2.9 nM

**Q.** With B6 as the binder, how does the Kd read?
**A.** 3.6 nM

**Q.** Which Kd does the source give for B7 here?
**A.** 1.7 nM

From US20260216242A1 (ALMAC DISCOVERY, published 2026)
